# Source: PubChem BioAssay AID445 (National Center for Advancing Translational Sciences (NCATS), 2006)
# About 40 (0.04%) of roughly 110,000 compounds were called active. The shares of active, inactive and inconclusive entries below differ from those in the screen. The call rests on the fitted dose curve; in most records, active means well fitted curve in the direction sought with a large enough effect in the signal ratio (not every such curve was filed as active); inconclusive means small, poorly fitted or top-dose-only effect, or a change in a side signal; inactive means flat fitted curve, though single readings scatter; the % refers to the signal ratio. Potencies beside an inconclusive call are fits to weak or partial responses and may not hold up.
# Assay: IkB Signaling;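 on IkBa stabilization activation: 0% = basal untreated cells and 100% = reference inhibitor full response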
# Details: ABC-DLBCL IkBa-CBG/CBR dual luciferase ratio (green luciferase fused to IkBa over red control in OCI-Ly3 lymphoma cells), 4 h; IkBa stabilization activation: at 57.1 µM (top of the series), scaled: untreated 0%, proteasome inhibitor 100% unless noted
# Summary of the method: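 In this assay, an IκBα–CBG68 fusion accumulates when IKK-driven degradation is blocked; native CBR normalizes for cell number. OCI-Ly3 cells were treated 4 h with compound and doxycycline, then green and red light read after Chroma-Glo addition.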
# Potency means the concentration at half of the fitted maximal effect.
SMILES,IkBa stabilization activation,Potency
COCCCNC(=O)c1ccc2nc3ccccc3c(=O)n2c1,inconclusive: 7.48% [signal inhibitor],
O=C(Nc1ccc2nn(-c3ccccc3)nc2c1)c1ccc(Br)o1,inactive,
COC(=O)c1cccc(NC(=O)c2nsc3ccccc23)c1,inactive,
CCOC(=O)c1ccc(NS(=O)(=O)c2ccc(SC)cc2)cc1,inconclusive: 6.44% [signal inhibitor],
O=C(CN1C(=O)COc2ccc(S(=O)(=O)N3CCCC3)cc21)N1CCN(c2cccc(C(F)(F)F)c2)CC1,inconclusive: 1.78% [signal inhibitor],
COc1ccc(N2CCN(S(=O)(=O)CCNC(=O)COc3ccccc3F)CC2)cc1,inconclusive: -0.499% [signal inhibitor],
CCN(CC)S(=O)(=O)c1ccc(C(=O)NCCSc2c(-c3ccc(C)cc3)[nH]c3ccccc23)cc1,inactive,
O=C(c1ccco1)N1CCN(C(=O)C2CC(c3ccc(Cl)c(Cl)c3)=NO2)CC1 (centres undefined),inconclusive: 1.34% [signal inhibitor],
Cc1ccc2c(c1C)NC(=O)CC2c1ccc(Cl)cc1Cl (centres undefined),,inconclusive: 15.8 µM [signal inhibitor]
Cc1ccc(OCC(=O)Nc2cccc(C(=O)OCc3cc(=O)n4nc(C)sc4n3)c2)cc1,,inconclusive: 3.98 µM [signal inhibitor]
Cc1ccc2c(c1)nnn2C1CCN(CC(=O)N2c3ccccc3CC2C)CC1 (centres undefined),inconclusive: 1.93% [signal inhibitor],
O=C(O)c1ccc(NC(=O)c2cn(-c3ccccc3)nc2-c2ccc(Br)cc2)cc1,inconclusive: 2.56% [signal inhibitor],
O=C(CCCCn1c(=O)c2ccccc2n(CC(=O)Nc2ccc(F)cc2)c1=O)NCc1ccco1,,"inconclusive: 2.51 µM [signal inhibitor, full curve]"
Cc1c(-c2nc(N)nc(Nc3ccccc3F)n2)oc2ccccc12,,"inconclusive: 0.01 µM [signal inhibitor, full curve]"
COc1ccc(OC)c(S(=O)(=O)N(C)CC(=O)N2CCN(c3cccc(Cl)c3)CC2)c1,inconclusive: 3.3% [signal inhibitor],
COc1ccccc1NC(=O)CSc1nnc(-c2ccco2)n1Cc1ccco1,inactive,
CCOc1ccc(OCc2ccc(C(=O)OCc3ccccn3)o2)cc1,inconclusive: 16% [signal inhibitor],
CCOc1ccc(C(=O)Nc2ccc3c(c2)OCCO3)cc1OC,inactive,
CCc1cccc(C)c1NC(=O)Cn1ccn(Cc2ccc(Cl)cc2)c(=O)c1=O,inactive,
O=C(O)c1ccc2c3c1cccc3c(=O)n1c3ccccc3nc21,inactive,
Cc1ccc(-c2[nH]c(-c3ccccc3)nc2SCC(=O)NCC2CCCO2)cc1 (centres undefined),inconclusive: -5.09% [signal inhibitor],
Cn1c(C(=O)Nc2ccc3c(c2)OCCO3)cc2c(=O)n(C)c3ccccc3c21,inactive,

SMILES,IkBa stabilization activation,Potency
O=C(CSc1nn(-c2ccc(Cl)cc2)c(=S)s1)N1CCN(C(=O)c2ccco2)CC1,inactive,
CCNC(=O)NC(=O)COC(=O)c1ccccc1SCC(=O)NC(=O)NCC,,"inconclusive: 15.8 µM [signal inhibitor, partial curve]"
C=CCSc1nc2c(N)ncnc2n1[C@@H]1O[C@H](CO)[C@@H](O)[C@@H]1O,"inactive: 1.56% [at 11.4 µM, scaled: untreated 0%, proteasome inhibitor 100%]",
C=CCc1cccc2cc(C(=O)N(CC)CC)c(=O)oc12,inactive,
CCOC(=O)c1ccc2c(c1)N(Cc1ccccc1)C(=O)c1ccccc1S2,inconclusive: -1.28% [signal inhibitor],
CCCCc1ccc(NC(=O)CSc2nc3ccccc3nc2N2CCOCC2)cc1,inconclusive: 8.02% [signal inhibitor],
O=C(Nc1cc(Cl)cc(Cl)c1)c1ccc(F)c(S(=O)(=O)NC2CCCCC2)c1,inconclusive: -2.33% [signal inhibitor],
COc1ccc(CCNC(=O)CCSCc2ccccc2Cl)cc1OC,inconclusive: 0.192% [signal inhibitor],
COc1cccc(-c2cc(C(=O)Nc3ccn(Cc4ccc(C)cc4)n3)no2)c1,inconclusive: 15.8% [signal inhibitor],
CC(C)c1ccc2oc(-c3ccc(NC(=O)c4cc5ccccc5o4)cc3)nc2c1,,"inconclusive: 0.794 µM [signal inhibitor, full curve]"
O=c1c2ccccc2nc(SCc2cn3ccsc3n2)n1-c1ccccc1,inactive,
NC(=O)CSc1nnc(Cc2csc(Nc3ccccc3)n2)n1Cc1ccccc1,,"inconclusive: 20 µM [signal inhibitor, partial curve]"
COc1ccc(C2C(=O)N(C3CCCCCC3)CC(=O)N2CCC2=CCCCC2)cc1 (centres undefined),inconclusive: 1.92% [signal inhibitor],
CCn1c(=O)c(C(=O)NCc2cccnc2)c(O)c2ccccc21,inactive,
CS(=O)(=O)N1CCCc2cc(C(=O)Nc3cccc(C(F)(F)F)c3)ccc21,inconclusive: 0.0286% [signal inhibitor],
CC(=O)c1ccc(N2CCN(c3ncnc4onc(C)c34)CC2)cc1,inconclusive: -3.47% [signal inhibitor],
CC1CCC(NC(=O)c2ccc(CS(=O)(=O)c3c(Cl)cccc3Cl)o2)CC1 (centres undefined),inconclusive: 0.507% [signal inhibitor],
CCOC(=O)c1ccc2c(c1)nc(C1CCN(S(=O)(=O)c3cccs3)CC1)n2CC,inconclusive: 6.77% [signal inhibitor],
COc1cc(-c2nc(-c3cccc(Cl)c3)c(-c3ccccc3)[nH]2)cc(OC)c1OC,,inconclusive: 10 µM [signal inhibitor]
COc1ccc(OCC(=O)Nc2ccccc2C(=O)OCc2cc(=O)n3nc(C)sc3n2)cc1,inconclusive: 13.3% [signal inhibitor],
COC(=O)c1ccc(CSc2nc3c(c(=O)[nH]2)CCC3)cc1,inconclusive: 4.03% [signal inhibitor],
Cn1c(=O)cc(SCC(=O)N2CCN(c3ccccc3F)CC2)c2cc(Cl)ccc21,inconclusive: 3.78% [signal inhibitor],
